Laboratory results published in PubChem BioAssay AID2675 (National Center for Advancing Translational Sciences (NCATS), 2010).
Out of some 280,000 compounds screened, about 100 (0.036%) were called active. The shares of active, inactive and inconclusive entries below differ from those in the screen. The call rests on the fitted dose curve; in most records, active means well fitted inhibition curve with a large enough effect in the signal ratio, with a control signal flat (not every such curve was filed as active); inconclusive means small, poorly fitted or top-dose-only effect, or effect the other way, or a change in a side signal; inactive means no such curve, though single readings can be large or run the other way; the % refers to the signal ratio. Where the call is inconclusive, the potency comes from a doubtful curve fit. “Side channel” marks fits to a control or component signal instead of the main read-out.

biological target: Muscleblind-like protein 1 (Homo sapiens) (UniProt Q9NR56); assay: qHTS Assay for Inhibitors of MBNL1-poly(CUG) RNA binding; details: TR-FRET MBNL1-His/biotin-(CUG)12 binding, 665/545 ratio; activity change, negative = inhibition: at 57.5 µM (top of the series)
Method in brief: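 His-tagged MBNL1 binding to biotinylated (CUG)12 RNA was measured by TR-FRET using terbium anti-His antibody (0.055 ng/ul final) and streptavidin-XL665 (5 nM final). Compounds were titrated 92 nM to 58 uM; 60 min at room temperature.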
On the % scale 0 is the no-effect control and ±100 the full control effect; potency means the concentration at half of the fitted maximal effect; tags describe the fitted curve by direction and shape or compound fluorescence and quenching.

Sequence of UniProt Q9NR56 (Q9NR56 whole entry, looked up): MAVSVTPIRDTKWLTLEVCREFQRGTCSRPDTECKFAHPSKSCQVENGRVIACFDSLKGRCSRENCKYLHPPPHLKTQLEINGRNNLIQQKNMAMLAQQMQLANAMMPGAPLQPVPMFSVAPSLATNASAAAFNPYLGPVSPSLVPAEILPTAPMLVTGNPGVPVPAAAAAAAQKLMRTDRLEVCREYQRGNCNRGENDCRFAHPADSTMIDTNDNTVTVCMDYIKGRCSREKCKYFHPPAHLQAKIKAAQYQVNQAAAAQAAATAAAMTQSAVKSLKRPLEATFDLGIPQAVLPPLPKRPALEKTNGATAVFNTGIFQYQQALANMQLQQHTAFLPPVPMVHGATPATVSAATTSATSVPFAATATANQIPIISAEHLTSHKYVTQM

SMILES | Potency | activity change, negative = inhibition
CCOC(=O)Cn1cc(/C=C(/C#N)C(=O)NC(C)C)c2ccccc21 | inconclusive: 28.2 µM [quencher, side channel, partial curve] | 
O=C(CCN1C(=O)S/C(=C\c2ccccc2)C1=O)N1CCCCC1 | inconclusive: 28.2 µM [quencher, side channel, partial curve] | 
N#C/C(=C/c1cn[nH]c1-c1ccc(Br)cc1)C(=O)O | inconclusive: 7.94 µM [quencher, side channel, partial curve] | 
Cc1noc2ncnc(Sc3c(Cl)cccc3Cl)c12 | inactive | 
O=C1OC/C(=C(/O)c2ccc(Cl)cc2)C1=O | inconclusive: 28.2 µM [quencher, side channel, single point] | 
Fc1ccc(NCc2n[nH]c(=S)n2Cc2ccccc2)cc1 | inactive | 
C=CCN(c1ccccc1)S(=O)(=O)c1cccc(C(=O)N2CC(C)CC(C)C2)c1 (centres undefined) | inactive | 
Nc1ccc(C2CCCc3nonc32)c2nonc12 (centres undefined) | inconclusive: 20 µM [quencher, side channel, partial curve] | 
Fc1ccccc1NC(=S)NCc1ccc(Cl)cc1 | inactive | 
CCCS(=O)(=O)N1CCCC(C(=O)NCCCN2CCN(c3cccc(Cl)c3)CC2)C1 (centres undefined) | inactive | 
CCN(CC)C(=O)CSc1nc(N)c(C#N)c(-c2cccs2)c1C#N | inconclusive: 39.8 µM [activator, partial curve] | 
Cn1nc([N+](=O)[O-])c(C(C#N)c2ccccn2)c(Cl)c1=O (centres undefined) | inconclusive: 12.6 µM [quencher, side channel, partial curve] | 
Cn1cccc1/C=C1\SC(=O)N(c2ccc(O)cc2)C1=O | inconclusive: 17.8 µM [quencher, side channel, partial curve, poor fit] | 
O=C(N/N=C/c1cccnc1)c1cc2ccccc2o1 | inconclusive: 31.6 µM [quencher, side channel, single point] | 
NS(=O)(=O)c1ccc(Nc2ncccc2[N+](=O)[O-])cc1 | inconclusive: 10 µM [quencher, side channel, partial curve] | 
CN(Cc1ccccc1)c1ccc(N2C(=O)CCCC2=O)cc1[N+](=O)[O-] | inconclusive: 7.94 µM [quencher, side channel, partial curve] | 
Cc1ccccc1C(=O)Oc1ccc2ccc(O)cc2c1 | inactive | 
CC(C)C[C@H](N)c1nnc(S(=O)(=O)Cc2cccc(F)c2)o1 | inactive | 
CN1CCN(/N=C/c2nc(-c3ccccc3Cl)n3ccccc23)CC1 | inconclusive: 28.2 µM [quencher, side channel, single point] | 
CCc1cc2c(=O)c(-c3nc4ccccc4n3C)coc2c(CN2CCOCC2)c1O | inconclusive: 0.316 µM [fluorescent, side channel, full curve] | 
CCCn1ncc(CN2CCC(Cc3cccc(F)c3)(C(=O)OCC)CC2)c1C | inconclusive: 1 µM [inhibitor, full curve, poor fit] | 
O=C1/C(=C/c2ccncc2)SC(=S)N1C1CCCCC1 | inconclusive: 20 µM [fluorescent, side channel, partial curve] | 

SMILES | Potency | activity change, negative = inhibition
COc1ccc(C(C(=O)NC(C)(C)C)N(Cc2cccs2)C(=O)CCC(=O)Nc2cc(C)on2)cc1 (centres undefined) | inconclusive: 39.8 µM [inhibitor, single point] | 
NC(=O)COC(=O)CCSc1ccc(Cl)cc1 | inactive | 
COCCN(C(=O)CNC(=O)c1ccco1)C(C(=O)NC1CCCCC1)c1cccs1 (centres undefined) | inconclusive: 63.1 µM [inhibitor, single point] | 
O=C(Nc1cccc(NC(=O)c2c(F)cccc2F)n1)c1c(F)cccc1F | inactive | 
CN(C)c1ccc(/C=C(/NC(=O)c2ccccc2Cl)C(=O)NCCN2CCOCC2)cc1 | inconclusive: 25.1 µM [quencher, side channel, partial curve] | 
Cn1ccc(C(=O)N/N=C/c2cccnc2)n1 | inconclusive: 15.8 µM [quencher, side channel, partial curve] | 
CN1C2=CC=CC=CC2=[N+](C)C12C=CC(=[N+]([O-])[O-])C=C2[N+](=O)[O-] (centres undefined) | inconclusive: 10 µM [quencher, side channel, partial curve] | 
O=C(N/N=C/c1ccco1)c1ccncc1 | inconclusive: 25.1 µM [quencher, side channel, single point] | 
COc1ccccc1NC(c1cccnc1)c1ccc2cccnc2c1O (centres undefined) | inactive | 
CC(/C=C/c1ccccc1)=N/O | inconclusive: 39.8 µM [quencher, side channel, single point] | 
COc1ccc(/C=C2/SC(=S)N(CCCC(=O)Nc3ccc(O)cc3)C2=O)cc1 | inconclusive: 39.8 µM [quencher, side channel, single point] | 
CCOC(=O)c1cc2c(ccc3ccccc32)oc1=O | inconclusive: 28.2 µM [quencher, side channel, partial curve] | 
CCOC(=O)c1cnc2c(F)ccc(F)c2c1Sc1ccccc1 | inconclusive: 28.2 µM [quencher, side channel, single point] | 
CCOC(=O)C(C(=O)OCC)c1cc(Br)c2noc3c2c1C(=O)c1ccccc1-3 | inconclusive: 2 µM [quencher, side channel, full curve] | 
O=C(c1ccc([N+](=O)[O-])s1)N1CCN(c2ccccc2)CC1 | inconclusive: 2.82 µM [quencher, partial curve] | 
Cc1cccn2c(=O)c3cc(C(=O)NC4CCCC4)c(=N)n(C4CCCC4)c3nc12 | inconclusive: 2.82 µM [quencher, side channel, full curve, poor fit] | 
COC(=O)c1ccc(CN2CCCC(C(=O)Nc3cccc(-n4cnnn4)c3)C2)cc1 (centres undefined) | inactive | 
O=c1[nH]c2c(Br)cnc([N+](=O)[O-])c2[nH]1 | inconclusive: 14.1 µM [quencher, side channel, partial curve] | 
O=C(c1sc2cc(F)ccc2c1Cl)N1CCN(c2cccc(Cl)c2)CC1 | inactive | 
CCOC(=O)C1=NN(c2ccc(OC)cc2)C2C(=O)N(c3ccccc3OC)C(=O)C12 (centres undefined) | inconclusive: 12.6 µM [quencher, side channel, partial curve] | 
CCOC(=O)c1c(NC(=O)C2C3C=CC(C3)C2(C)C(=O)O)sc2c1CCCC2 (centres undefined) | inconclusive: 0.141 µM [quencher, side channel, partial curve, poor fit] | 
C=CCn1c(-c2sc3nc(C)cc(C)c3c2N)n[nH]c1=S | inconclusive: 12.6 µM [quencher, side channel, partial curve] | 

SMILES | Potency | activity change, negative = inhibition
O=C(Cn1nnc2ccccc2c1=O)N[C@@H](Cc1ccccc1)C(=O)O | inactive | 
COC(=O)CCC(=O)OC1(C)C(=O)C=C2C=C(C3CC3)N(Cc3ccco3)C=C2C1=O (centres undefined) | inconclusive: 12.6 µM [quencher, side channel, partial curve] | 
Clc1ccc(N=c2ssnc2Cl)cc1 | inconclusive: 28.2 µM [quencher, side channel, single point] | 
CC1(C)CC(=O)C(C=NCc2ccccn2)=C(O)C1 | inactive | 
C/C(=N\NC(=O)C1(C)CC1(Br)Br)c1ccc([N+](=O)[O-])cc1 (centres undefined) | inconclusive: 2.51 µM [quencher, side channel, partial curve] | 
CSc1nc(/C=C2\C=Nc3ccccc32)c(O)n1C | inconclusive: 8.91 µM [quencher, side channel, partial curve] | 
Nc1cccc(N2C(=O)c3cccc4c(N)ccc(c34)C2=O)c1 | inconclusive: 8.91 µM [quencher, side channel, partial curve] | 
Cc1ccc(S(=O)(=O)N(C)C)cc1NC(=S)Nc1cccc2ccccc12 | inactive | 
O=C(O)c1ccc(N2C(=O)c3cccc4c(C(=O)O)ccc(c34)C2=O)cc1 | inconclusive: 39.8 µM [quencher, single point] | 
N#C/C(=C/c1ccc(-c2ccccc2[N+](=O)[O-])o1)C(N)=O | inconclusive: 39.8 µM [quencher, side channel, single point] | 
O=C(Nc1ccc(C(=O)N2CCCC2)cc1)c1ccccc1[N+](=O)[O-] | inconclusive: 28.2 µM [quencher, side channel, partial curve] | 
O=C(N/N=C\c1ccc([N+](=O)[O-])o1)C1COc2ccccc2O1 (centres undefined) | inconclusive: 39.8 µM [quencher, single point] | 
COc1ccc(/C(O)=C2\C(=O)C(=O)N(c3cc(C)on3)C2c2ccccc2OC)cc1 (centres undefined) | inconclusive: 35.5 µM [quencher, side channel, single point] | 
CCCOC(=O)c1c(NC(=O)C2CCCO2)sc(C(=O)OC)c1C (centres undefined) | inactive | 
S=c1[nH]c(-c2ccccc2)cs1 | inactive | 
Cc1cc(C)n2nc(CNS(=O)(=O)c3ccc([N+](=O)[O-])cc3)nc2n1 | inconclusive: 3.16 µM [quencher, side channel, full curve] | 
O=C(CNC(=S)N(Cc1ccccc1F)C1CCCCC1)NCCN1CCOCC1 | inconclusive: 35.5 µM [fluorescent, single point] | 
Nc1cccc2c(=O)c3ccccc3[nH]c12 | inconclusive: 14.1 µM [quencher, partial curve] | 
COC(=O)c1cccc(Nc2nc3ccccc3nc2C)c1 | inactive | 
C[N+]1(CC#CC(O)(c2ccccc2)c2ccccc2)CCCC1 |  | inactive: -12.6% [at 11.5 µM]
